Measurements taken from the supplement of paper PMC8728848.
This is one part of the list.

Tests used:
Experiment in all cases: glycan array binding signal (z-score within array); higher = stronger binding
Settings in all cases: glycan notation: IUPAC condensed, linker removed
Kdn(a2-3)Gal(b1-4)Glc = target: Kdn(a2-3)Gal(b1-4)Glc
Summary of the method: (§1)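 Glycan array data were curated from 3228 arrays in the Consortium for Functional Glycomics database and kept only where the protein sequence was available. Glycan names were converted to IUPAC-condensed notation, and columns mapping to the same glycan were averaged. The binding signal is a within-array Z-score, averaged across arrays of the same protein sequence at different concentrations or buffers and across linkers. Negative Z-scores can be read as non-binding.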

Kdn(a2-3)Gal(b1-4)GlcNAc = target: Kdn(a2-3)Gal(b1-4)GlcNAc
Summary of the method: as §1

[1] = target: Kdn(a2-3)Gal(b1-4)[Fuc(a1-3)]GlcNAc
Summary of the method: as §1

Kdn(a2-6)Gal(b1-4)GlcNAc = target: Kdn(a2-6)Gal(b1-4)GlcNAc
Summary of the method: as §1

[2] = target: Man(a1-2)Man(a1-2)Man(a1-3)Man
Summary of the method: as §1

[3] = target: Man(a1-2)Man(a1-2)Man(a1-6)[Man(a1-3)]Man
Summary of the method: as §1

Man(a1-2)Man(a1-3)Man = target: Man(a1-2)Man(a1-3)Man
Summary of the method: as §1

[4] = target: Man(a1-2)Man(a1-3)[Man(a1-2)Man(a1-6)]Man
Summary of the method: as §1

[5] = target: Man(a1-2)Man(a1-3)[Man(a1-2)Man(a1-6)]Man(a1-6)[Man(a1-2)Man(a1-2)Man(a1-3)]Man
Summary of the method: as §1

[6] = target: Man(a1-2)Man(a1-3)[Man(a1-2)Man(a1-6)]Man(a1-6)[Man(a1-2)Man(a1-2)Man(a1-3)]Man(b1-4)GlcNAc(b1-4)GlcNAc
Summary of the method: as §1

[7] = target: Man(a1-2)Man(a1-3)[Man(a1-6)]Man(a1-6)[Man(a1-2)Man(a1-3)]Man(b1-4)GlcNAc(b1-4)GlcNAc
Summary of the method: as §1

[8] = target: Man(a1-2)Man(a1-6)[Man(a1-3)]Man(a1-6)[Man(a1-2)Man(a1-2)Man(a1-3)]Man
Summary of the method: as §1

[9] = target: Man(a1-2)Man(a1-6)[Man(a1-3)]Man(a1-6)[Man(a1-2)Man(a1-2)Man(a1-3)]Man(b1-4)GlcNAc(b1-4)GlcNAc
Summary of the method: as §1

Man(a1-3)[Man(a1-6)]Man = target: Man(a1-3)[Man(a1-6)]Man
Summary of the method: as §1

[10] = target: Man(a1-3)[Man(a1-6)]Man(a1-6)[Man(a1-2)Man(a1-3)]Man(b1-4)GlcNAc(b1-4)GlcNAc
Summary of the method: as §1

[11] = target: Man(a1-3)[Man(a1-6)]Man(a1-6)[Man(a1-3)]Man
Summary of the method: as §1

[12] = target: Man(a1-3)[Man(a1-6)]Man(a1-6)[Man(a1-3)]Man(b1-4)GlcNAc(b1-4)GlcNAc
Summary of the method: as §1

[13] = target: Man(a1-3)[Man(a1-6)]Man(b1-4)GlcNAc(b1-4)GlcNAc
Summary of the method: as §1

[14] = target: Man(a1-3)[Man(a1-6)]Man(b1-4)GlcNAc(b1-4)[Fuc(a1-6)]GlcNAc
Summary of the method: as §1

Man(a1-6)Man = target: Man(a1-6)Man
Summary of the method: as §1

Man(b1-4)GlcNAc = target: Man(b1-4)GlcNAc
Summary of the method: as §1

MurNAc(b1-4)GlcNAc = target: MurNAc(b1-4)GlcNAc
Summary of the method: as §1

Neu5Ac(a2-3)Gal = target: Neu5Ac(a2-3)Gal
Summary of the method: as §1

[15] = target: Neu5Ac(a2-3)Gal(b1-3)GalNAc
Summary of the method: as §1

[16] = target: Neu5Ac(a2-3)Gal(b1-3)GalNAc(b1-3)Gal(a1-4)Gal(b1-4)Glc
Summary of the method: as §1

[17] = target: Neu5Ac(a2-3)Gal(b1-3)GalNAc(b1-4)[Neu5Ac(a2-3)]Gal(b1-4)Glc
Summary of the method: as §1

[18] = target: Neu5Ac(a2-3)Gal(b1-3)GalNAc(b1-4)[Neu5Ac(a2-8)Neu5Ac(a2-3)]Gal(b1-4)Glc
Summary of the method: as §1

[19] = target: Neu5Ac(a2-3)Gal(b1-3)GalNAc6S
Summary of the method: as §1

[20] = target: Neu5Ac(a2-3)Gal(b1-3)GlcNAc
Summary of the method: as §1

[21] = target: Neu5Ac(a2-3)Gal(b1-3)GlcNAc(b1-2)Man
Summary of the method: as §1

[22] = target: Neu5Ac(a2-3)Gal(b1-3)GlcNAc(b1-2)Man(a1-3)[GlcNAc(b1-4)][Neu5Ac(a2-3)Gal(b1-3)GlcNAc(b1-2)Man(a1-6)]Man(b1-4)GlcNAc(b1-4)GlcNAc
Summary of the method: as §1

[23] = target: Neu5Ac(a2-3)Gal(b1-3)GlcNAc(b1-2)Man(a1-3)[Neu5Ac(a2-3)Gal(b1-3)GlcNAc(b1-2)Man(a1-6)]Man(b1-4)GlcNAc(b1-4)GlcNAc
Summary of the method: as §1

[24] = target: Neu5Ac(a2-3)Gal(b1-3)GlcNAc(b1-3)Gal(b1-3)GlcNAc
Summary of the method: as §1

[25] = target: Neu5Ac(a2-3)Gal(b1-3)GlcNAc(b1-3)Gal(b1-4)GlcNAc
Summary of the method: as §1

[26] = target: Neu5Ac(a2-3)Gal(b1-3)GlcNAc(b1-3)GalNAc
Summary of the method: as §1

[27] = target: Neu5Ac(a2-3)Gal(b1-3)GlcNAc(b1-4)Gal(b1-4)Glc
Summary of the method: as §1

[28] = target: Neu5Ac(a2-3)Gal(b1-3)GlcNAc(b1-6)GalNAc
Summary of the method: as §1

[29] = target: Neu5Ac(a2-3)Gal(b1-3)GlcNAc6S
Summary of the method: as §1

B1: SP15308A-bot-339-19-339 (Bacteroides ovatus) (protein)
chain: ACNNEWEDEQYEQYISFKSPIPAGGEGVTDIYVRYKEDGKVTYRLPIVVSGSTTNTLDREVHIAVDKDTLETLNIERFSIHRPGLWYTALEEDKYDFPKTVHISAGSSVEQLNIDFNLQGIDMLEKWVLPLTIVDDPSYNYKSHPRKNYAKALLRVIPFNNYSGSYTSSAMKVYTYINGKPDTNARTANKRTGYVINDNTVFFYAGLISEDLDKEVREKYKINVHFNEDGTLHMEQGDPTNKMKFELIGTPTYSKTSVMDATRPYLERRYVQIMFEYDFEDFSYGGNGVDVIPIKYKVEGSMTLQRNINTQIPDEDQQIEW
Kdn(a2-3)Gal(b1-4)Glc
  glycan array binding signal (z-score): -0.005
Kdn(a2-3)Gal(b1-4)GlcNAc
  glycan array binding signal (z-score): -0.185
[1]
  glycan array binding signal (z-score): -0.264
Kdn(a2-6)Gal(b1-4)GlcNAc
  glycan array binding signal (z-score): -0.417
[2]
  glycan array binding signal (z-score): -0.468
[3]
  glycan array binding signal (z-score): -0.281
Man(a1-2)Man(a1-3)Man
  glycan array binding signal (z-score): 0.048
[4]
  glycan array binding signal (z-score): 0.074
[5]
  glycan array binding signal (z-score): 0.464
[6]
  glycan array binding signal (z-score): -0.19
[7]
  glycan array binding signal (z-score): -0.204
[8]
  glycan array binding signal (z-score): -0.563
[9]
  glycan array binding signal (z-score): -0.087
Man(a1-3)[Man(a1-6)]Man
  glycan array binding signal (z-score): -0.441
[10]
  glycan array binding signal (z-score): 0.003
[11]
  glycan array binding signal (z-score): 0.018
[12]
  glycan array binding signal (z-score): -0.618
[13]
  glycan array binding signal (z-score): -0.053
[14]
  glycan array binding signal (z-score): -0.355
Man(a1-6)Man
  glycan array binding signal (z-score): 0.306
Man(b1-4)GlcNAc
  glycan array binding signal (z-score): 0.383
MurNAc(b1-4)GlcNAc
  glycan array binding signal (z-score): -0.317
Neu5Ac(a2-3)Gal
  glycan array binding signal (z-score): -0.314
[15]
  glycan array binding signal (z-score): 1.94
[16]
  glycan array binding signal (z-score): -0.171
[17]
  glycan array binding signal (z-score): -0.366
[18]
  glycan array binding signal (z-score): -0.26
[19]
  glycan array binding signal (z-score): -0.272
[20]
  glycan array binding signal (z-score): -0.033
[21]
  glycan array binding signal (z-score): -0.426
[22]
  glycan array binding signal (z-score): -0.338
[23]
  glycan array binding signal (z-score): -0.508
[24]
  glycan array binding signal (z-score): -0.321
[25]
  glycan array binding signal (z-score): 0.11
[26]
  glycan array binding signal (z-score): -0.085
[27]
  glycan array binding signal (z-score): -0.393
[28]
  glycan array binding signal (z-score): -0.333
[29]
  glycan array binding signal (z-score): 0.047
